# “And” between values parts separate entries of the source, which are not always exact repeats. Identical values can stand only once. Counter-ions that a name gives are not always drawn. ± gives the standard deviation of the averaged measurements. The full ranking holds about 3,200 compounds; the median of “nuclei count (viability) relative to DMSO” is about 99, and the lowest 2% start at about 16. Some of the results follow.
# System: U2OS
# Assay: nuclei count (viability) relative to DMSO (% of DMSO); higher = more viable cells
# Conditions: 10 µM; 24 h
# Procedure: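 Primary image-based screen in U2OS cells: compounds at 10 uM for 24 h, then a 1 h o-propargyl-puromycin (OPP) pulse, click labelling, and high-throughput microscopy. Mean cytoplasmic OPP intensity and nuclei count were normalised to DMSO wells within each plate (DMSO = 100) and averaged over triplicate plates.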
row,SMILES,nuclei count
1,CCOC(=O)O[C@]1(C(=O)COC(=O)CC)CC[C@H]2[C@@H]3CCC4=CC(=O)C=C[C@]4(C)[C@H]3[C@@H](O)C[C@@]21C [Prednicarbate],105
2,O=C(Nc1ccccc1-c1cn2c(CN3CCNCC3)csc2n1)c1cnc2ccccc2n1,12.2
3,COc1ccc2c(c1OC)C(=O)O[C@@H]2[C@H]1c2c(cc3c(c2OC)OCO3)CCN1C [Noscapine hydrochloride],95.6
4,CC(=O)NCCCS(=O)(=O)O [Acamprosate calcium],96.1
5,O=C(O)c1cc(/N=N/c2ccc(O)c(C(=O)O)c2)ccc1O [Olsalazine Sodium],98.2
6,O=C(CCc1ccc(O)cc1)c1c(O)cc(O)cc1O [Phloretin (Dihydronaringenin)],92.6
7,Cc1cn(CCN2CCN(c3ccccc3-c3cc(C#N)cc(C(=O)NCCCN4CCCC4)c3)CC2)c2ccccc12,22.8
8,CC(=O)C1=C(O)C=C2Oc3c(C(C)=O)c(O)c(C)c(O)c3[C@]2(C)C1=O [Usnic acid],103
9,CC[C@H](C)[C@H](N)C1=N[C@H](C(=O)N[C@@H](CC(C)C)C(=O)N[C@H](CCC(=O)O)C(=O)N[C@H](C(=O)N[C@H]2CCCCNC(=O)[C@H](CC(N)=O)NC(=O)[C@@H](CC(=O)O)NC(=O)[C@H](Cc3cnc[nH]3)NC(=O)[C@@H](Cc3ccccc3)NC(=O)[C@H]([C@@H](C)CC)NC(=O)[C@@H](CCCN)NC2=O)[C@@H](C)CC)CS1 [Bacitracin],104
10,OC(CNCC(O)C1CCc2cc(F)ccc2O1)C1CCc2cc(F)ccc2O1 (centres undefined) [Nebivolol (Bystolic)],98.9
11,OC(CNCC(O)C1CCc2cc(F)ccc2O1)C1CCc2cc(F)ccc2O1 (centres undefined) [Nebivolol hydrochloride],102
12,O=C(NCc1ccccc1)c1csc(Nc2ccncn2)n1 [Thiazovivin],97.7 ± 2.5
13,CC(C)NCC(O)COc1ccccc1-n1cccc1 (centres undefined) [Isamoltane hemifumarate],103
14,CNC[C@H](O)c1ccc(O)c(O)c1 [Epinephrine bitartrate (Adrenalinium)],110
15,CN1CCN(CCCN2c3ccccc3Sc3ccc(C(F)(F)F)cc32)CC1 [Trifluoperazine dihydrochloride],101
16,CNCc1ccc(-c2cc(-c3nc(-c4ccc(S(=O)(=O)C(C)C)cc4)cnc3N)on2)cc1,59.2
17,CN(C)CCN1C(=O)c2ccccc2N(C)c2ccccc21 [Dibenzepine hydrochloride],107
18,CC(S)C(=O)NCC(=O)O (centres undefined) [Tiopronin (Thiola)],104
19,COc1ccc(OC)c(C(O)CNC(=O)CN)c1 (centres undefined) [Midodrine hydrochloride],93
20,CN(C(=O)C(Cl)Cl)c1ccc(OC(=O)c2ccco2)cc1 [Diloxanide furoate],107
21,CCc1cc(Nc2nccc(-c3c(-c4ccc(OC)c(C(=O)Nc5c(F)cccc5F)c4)nc4ccccn34)n2)c(OC)cc1N1CCC(N2CCN(S(C)(=O)=O)CC2)CC1,96.9 ± 8.5
22,OC(CCCN1CCN(c2ncc(F)cn2)CC1)c1ccc(F)cc1 (centres undefined),104

row,SMILES,nuclei count
1,Nc1ccn([C@H]2CC[C@@H](CO)O2)c(=O)n1 [Zalcitabine],97.9
2,C[C@@H](O)[C@H]1C(=O)N2C(C(=O)O)=C(S[C@@H]3CN[C@H](CNS(N)(=O)=O)C3)[C@H](C)[C@H]12 [Doripenem Hydrate],112
3,Oc1c(I)cc(Cl)c2cccnc12 [Clioquinol],101
4,CC(C)(C#N)c1cc(Cn2cncn2)cc(C(C)(C)C#N)c1 [Anastrozole],112
5,COc1cc2nccc(Oc3ccc(NC(=O)Nc4cc(C)on4)c(Cl)c3)c2cc1OC [Tivozanib (AV-951)],77.3
6,"COC(=O)/C=C/c1cc(O)ccc1O [Methyl 2,5-dihydroxycinnamate]",66.1
7,CN(C)CCOC(C)(c1ccccc1)c1ccccn1 (centres undefined) [Doxylamine succinate],102
8,CNC(=O)c1cccc(-c2ccc3c(N4CCOC[C@@H]4C)nc(N4CCOC[C@@H]4C)nc3n2)c1,76.7 ± 0.85
9,C=CCNC(N)=S [Allylthiourea],103
10,COc1cccc(-c2cc(=O)c3ccccc3o2)c1N,96.5 and 107 and 98.2
11,CC(=O)c1ccc2c(c1)N(CCCN(C)C)c1ccccc1S2 [Acetopromazine maleate salt],101
12,Cc1cc(=O)[nH]c(=S)[nH]1 [Methylthiouracil],102
13,CC(=O)[C@H]1CC[C@H]2[C@@H]3C=CC4=CC(=O)CC[C@@]4(C)[C@@H]3CC[C@]12C [Dydrogesterone],103
14,Cc1cc(I)ccc1Nc1c(C(=O)NOCC2CC2)cc(F)c(F)c1F,103
15,O=C(O)c1ccc(N2C(=O)C(=Cc3ccccc3)SC2=S)cc1,101
16,CC[C@]1(O)C[C@H]2CN(CCc3c([nH]c4ccccc34)[C@@](C(=O)OC)(c3cc4c(cc3OC)N(C=O)[C@H]3[C@@](O)(C(=O)OC)[C@H](OC(C)=O)[C@]5(CC)C=CCN6CC[C@]43[C@@H]65)C2)C1 [Vincristine],18.1
17,CC[C@]1(O)C[C@H]2CN(CCc3c([nH]c4ccccc34)[C@@](C(=O)OC)(c3cc4c(cc3OC)N(C=O)[C@H]3[C@@](O)(C(=O)OC)[C@H](OC(C)=O)[C@]5(CC)C=CCN6CC[C@]43[C@@H]65)C2)C1 [Vincristine sulfate],17.8
18,NC[C@@H]1O[C@H](O[C@H]2[C@@H](O)[C@H](O[C@@H]3[C@@H](O)[C@H](N)C[C@H](N)[C@H]3O[C@H]3O[C@H](CO)[C@@H](O)[C@H](O)[C@H]3N)O[C@@H]2CO)[C@H](N)[C@@H](O)[C@@H]1O [Paromomycin sulfate],104
19,Nc1nc(CC(=O)Nc2ccc(CCNC[C@H](O)c3ccccc3)cc2)cs1 [Mirabegron (YM178)],102
20,COc1ccccc1OCC(O)CO (centres undefined) [Guaifenesin],90.1
21,Cc1cccc(C)c1OCC(C)N (centres undefined) [Mexiletine hydrochloride],97.6 ± 3
22,COc1ccccc1N1CCN(CCCCN2C(=O)c3ccccc3C2=O)CC1 [NAN-190 hydrobromide],107
